# From the supplement of paper PMC11417369
# ± gives the standard deviation of the averaged measurements. This is one part of the list.
# System: PfAP2-I AP2 domain 3 (GST-tagged)
# Test: gcPBM binding intensity (ln(normalized median fluorescence intensity)); higher = stronger DNA binding
# Summary of the method: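 An Agilent 4 × 180k array of primer-extended double-stranded 36-bp intergenic genomic probes, with negative controls, was incubated for 1 h with GST-tagged P. falciparum DNA-binding domains expressed in E. coli. Alexa488 anti-GST antibody detected bound protein, scanned at 488 nm. Binding intensity is the highest Masliner-normalised natural-log median intensity across replicate spots of either probe orientation.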
row,Sequence,gcPBM binding intensity (ln)
1,CGGTATTTTTTAATTTGTACGCATATACAATAATTA [XGTACX_site8603],7.91 ± 0.52
2,GATATGATTACCTTATGGTGTTTTTGATGGATAGTT [CACACA_negctrl_site1504],7.58 ± 0.74
3,AATCTCAGAATATACTGTACTTTAAGAAAAAAAAAA [XGTACX_site110],7.75 ± 0.54
4,AATATATATTTGTGTACACATTATATATATATATAT [CACACA_site6103],9.42 ± 0.55
5,AAAATTTAAATAGGAAGTACGTTCACTAAGAAAATA [XGTACX_site6546],7.99 ± 0.69
6,AAATAAAGATATATATATATATATATATATAATTTT [CACACA_negctrl_site30],7.97 ± 0.41
7,AAATATTTTGCATACACATGCAAATATTTTTTACAT [TGCATGCA_site554],9.81 ± 0.88
8,AATATAAAAAGGCACACACACAAAAAAAAAAAAAAA [CACACA_site896],8.31 ± 0.29
9,AAAATGTGCATATTTGCACACTTCAATATATATATA [CACACA_site1791],10.4 ± 0.2
10,CATAAATCAGCCATAACACACATACCTATATACATA [CACACA_site6324],7.75 ± 0.57
11,TGAAAGAATGTTAATAGTACACACAATTATTATATA [XGTACX_site7936],7.75 ± 0.42
12,TAAGAACTATTCAGTAGTACCTATATGGATTACTAA [XGTACX_site4278],7.17 ± 0.54
13,ATTGATATTGTATAATGTACAGGAAAAAAAAAAAAA [XGTACX_site526],8.18 ± 0.64
14,TGAAAGAACCTGATTACACACATAAGTTATAAATAT [CACACA_site6165],7.5 ± 0.61
15,TTCTTTATTTTTTCTACACACATTATGTATTCAAAG [CACACA_site3527],8.28 ± 0.85
16,TTTATATTTCTTCATCGTACACATAAAAAAAAAAAA [XGTACX_site3244],8.25 ± 0.3
17,ATACTCACGAAACACACACACAATATATATATATAT [CACACA_site4136],9.36 ± 0.27
18,GAAAATATTAAATGAAGTACAATATTTATGTTACTT [XGTACX_site8737],7.61 ± 0.3
19,TTTTATATTTTAAGAGTGCATTTTATATCTTTTTCT,9.62 ± 0.19
20,ATAATAACTGATAAATGTACATATAAATTTTATGAT [XGTACX_site195],7.79 ± 0.4
21,AGGATATGCGGACACACACACATATATATATATATA [CACACA_site5247],9.31 ± 0.11
22,ATAATTTAAAAACATTGTACATTAATATATATGTAT [XGTACX_site8970],7.65 ± 0.48
23,TTTTATTTATAATACTCACACATTTATATTACATAT [CACACA_site6000],7.75 ± 0.68

row,Sequence,gcPBM binding intensity (ln)
1,CAAAAGGATGTGGGATGTACATATGAAAAAAAAAAA [XGTACX_site8059],8.09 ± 0.8
2,TAAATTTAAAAATCTGCACACATTTAAAAAAAAAAA [CACACA_site2515],8.59 ± 0.45
3,ATTACTAAAAAATATAAACACACATATATTTTACAT [CACACA_site8633],7.76 ± 0.52
4,GGTCTTTTTTTCAAAAGTACATAAATAAAAAAGGTT [XGTACX_site2894],8.11 ± 0.62
5,TTGTATGTAAAAAAGTGTACATGAGTGATTATATAA [XGTACX_site8166],8.26 ± 0.42
6,AATAAAATAATAAAAGCACACAAGAATACACCCAAA [CACACA_site7919],8.78 ± 0.26
7,TTTAACGAATAAAAATGTACAAATTTATACATTTAT [XGTACX_site2805],7.53 ± 0.52
8,CTTTTTTTCTTTCCAAGTACTAAATTCATACAAATT [XGTACX_site2605],7.86 ± 0.34
9,ATAGGTAAAAAGTATACACACGTTGACACATTCTTT [CACACA_site4794],7.71 ± 0.61
10,ATTTTAAAAAGGATAGTGCAAATGTTAAAATAGGAC,10.6 ± 0.3
11,AAATAATACAAGGGCTGTACATAAAAAGGAGTATAT [XGTACX_site839],8.56 ± 0.77
12,GTATATATCCCAAAATGTACATAATTTATTATTTAT [XGTACX_site2842],7.68 ± 0.57
13,AGAAAAAAAAAAAGTACACACATATAACATATAGAT [CACACA_site7410],7.97 ± 0.15
14,ATTTATTTTCTGTGTACACATATGTTGGGTATTTTA [CACACA_site5902],8.29 ± 0.63
15,TACAAAAAAATAAATAATAAAAAAAAATATATATAA [XGTACX_negctrl_site344],7.46 ± 0.6
16,CAGGTGCACTATATTACACACGCTTCTTTTTTTTTA [CACACA_site2069],11.7 ± 0.59
17,TTGATATTATTGTATAAACATAATAGAGATAAAGAG [TGCATGCA_negctrl_site455],8.6 ± 0.3
18,AACATGTTAACTAAATGTACACACCTATGTTGATGT [XGTACX_site3777],7.83 ± 0.38
19,TGAAGGATATATTCCGTGCACATATAAATATATACA,11.035 ± 0.007
20,GGAAAACACAAAAACTGTACATTTATTCAACATATA [XGTACX_site5831],7.71 ± 0.38
21,TATATACATATATACACACACATATATATATATATA [CACACA_site2805],9.26 ± 0.77
22,ATTTCTAAATGTTGGTGTACGTTTTTTTATAACCTT [XGTACX_site1752],8.16 ± 0.44
23,AATAAATGGAATGTCACACATATATATATATATATA [CACACA_site4869],9.31 ± 0.33

row,Sequence,gcPBM binding intensity (ln)
1,ATTATTTAAAAAAAATGTACATAATAAATATGAACG [XGTACX_site4010],7.64 ± 0.26
2,AAAAAAAAGAAAGAAAGTACAAATTATAAAATGAAC [XGTACX_site860],7.78 ± 0.77
3,TAAATTAAAAAACACACACACAAAAAAAAAAAAAAA [CACACA_site2263],8.16 ± 0.91
4,AGTGTATGTATATAAACACACATACATATTTATAAC [CACACA_site6777],7.57 ± 0.62
5,CTTAAATTGAAATGTTGTACAAAGTAAAAACAATGA [XGTACX_site2123],7.78 ± 0.52
6,AAAGAATACAAAATTGCACACATATTGTGAAAATGT [CACACA_site9327],8.36 ± 0.38
7,TATTAACACAATAGCGCACACTTTTAATATTTTATA [CACACA_site1617],10.1 ± 0.56
8,ATATAATGTTGTAATAGTACTTTTTTCATATAAATA [XGTACX_site2666],7.91 ± 0.42
9,ATCTCTTATATATTCACACACATATATATAATTATA [CACACA_site1502],8.27 ± 0.47
10,AAATATAATAACGAACGTACTTATTATAATTTGTAA [XGTACX_site2342],7.5 ± 0.28
11,TATTTATATATATGATGTACATAAGGTGTAATGTTA [XGTACX_site5591],8.12 ± 0.24
12,ATATATATTTAATGTTGTACATAAAAAATATATAAA [XGTACX_site7774],7.72 ± 0.2
13,TACATGAATATTTATACATGCACACTAAAATAAAGA [TGCATGCA_site611],8.52 ± 0.81
14,TATTTACATACAAAATGTACAAAAATATATTTTTTT [XGTACX_site888],7.67 ± 0.43
15,TATAAACCTTTTTGCACGCACACAAAAAAAAAATAA [CACACA_site168],9.99 ± 0.46
16,AAACATATATACATATGTACATATATACATATATGT [XGTACX_site5779],8.04 ± 0.057
17,GATTAACAACATATTAGTACATATATTATATATATA [XGTACX_site7646],8.61 ± 0.23
18,GACTATAATGTTTTGGTGCGTCATGTTATGGTCATC,9.05 ± 0.24
19,TTCGGAAAAATTAAAGCACACAAAAAAAAATAAAAA [CACACA_site8296],9.94 ± 0.69
20,CACCCCCACAGACACACACACACACCGATATATATA [CACACA_site8010],9.06 ± 0.59
21,TATAATTTAACGACATGTACATATAAAAAAATATTT [XGTACX_site2395],7.96 ± 0.3
22,CATATTTTATTATATACATGCAATTTTAATATATAT [TGCATGCA_site544],7.75 ± 0.33
23,TGTAGATTTTGTAACACACACATATAAATACCTATA [CACACA_site7183],7.79 ± 0.45

row,Sequence,gcPBM binding intensity (ln)
1,TTATTTATATTTTTTTGTACACATATTGTATACATA [XGTACX_site1178],8.07 ± 0.47
2,ATACACATTCTTCCGACATAATAAGAAAAAGAAAAA [CACACA_negctrl_site9],7.67 ± 0.47
3,AAAATGTATTCTCTCATGCACACTTTCTTTAAGGGA [CACACA_site2196],8.3 ± 0.55
4,TCAATCATCTTATATAGTACACATAAAAGTATTATA [XGTACX_site8513],7.7 ± 0.35
5,GACAAAATGATAGGGACACACAATATCAATGTTTAA [CACACA_site765],7.63 ± 0.45
6,AAAAAAAAAAATCCAGTGCATATATTTTTTACATAT,9.87 ± 0.16
7,CCACTAATAAATATTACACACATATAGATTTATATT [CACACA_site7465],7.83 ± 0.44
8,CAAAAGGATATGCACACACACACACGGATATTTATA [CACACA_site7099],8.985 ± 0.064
9,AGGCACACAAACATATGTACACATATATATATATAT [XGTACX_site4723],9.24 ± 0.14
10,ATATTTATATGGTTTGCACACATAACAACTATGGTT [CACACA_site3631],8.64 ± 0.31
11,ATATAACATATCAATTGTACGTATTGATAATATATA [XGTACX_site2504],7.72 ± 0.29
12,TTTTGTTTTAATTTTATTTGATTTTATTTGATTTAT [CACACA_negctrl_site692],7.39 ± 0.69
13,TTTATTGAACGTACACATATATATATGTATATATTT [TGCATGCA_negctrl_site141],7.99 ± 0.15
14,TTATTTTTTTTATATATATGTATAAATATATATATA [XGTACX_negctrl_site441],8.69 ± 0.25
15,ATATATATAAAATATACACACATACTGTTCATTTAA [CACACA_site6149],8.03 ± 0.64
16,TTTTATTATTAATTTCTTTTTTCTCATCACTTTCAA [XGTACX_negctrl_site117],7.63 ± 0.98
17,TTTACAAAAAATTATACACACACGTACATATAAATA [CACACA_site945],7.85 ± 0.28
18,TAATTTATGAGTAATACACACACTTGTGGATATATT [CACACA_site3790],7.66 ± 0.49
19,GAAAAATTTTTATATGTGCACATGTTATATATAATT [GTGCAC_site9742],9.46 ± 0.62
20,AAATATTATTTATTTACACACCAATCTTCTTTTCTT [CACACA_site3990],7.72 ± 0.64
21,TACGTTCTAATATATACACACCTGGTATTAATTATG [CACACA_site5260],7.81 ± 0.49
